# Reference: PubChem BioAssay AID1347043 (National Center for Advancing Translational Sciences (NCATS), 2019)
# Out of some 76,000 compounds screened, about 1,900 (2.5%) were called active. Inconclusive results, whose numbers are uncertain, are shown with a selection of clear calls. Calls come from the whole dose curve; as a rule, active = well fitted inhibition curve with a large enough effect; inconclusive = small, poorly fitted or top-dose-only effect; inactive = flat fitted curve, though single readings scatter. Potencies of inconclusive entries are doubtful fits and often do not repeat.
# Molecular target: Luciferin 4-monooxygenase (Photinus pyralis) (UniProt P08659)
# Assay: Firefly luciferase inhibition profiling of diverse chemical library using quantitative high-throughput screening; note: nearly all actives have a fitted effect of over 65% in size
# Settings: purified P. pyralis luciferase, luminescence, biochemical; activity change, negative = inhibition: at 115 µM (top of the series) unless noted
# How it was run: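 Luminescence read by CCD imaging after purified firefly luciferase (10nM final) was added to substrate buffer holding 10uM D-luciferin and 10uM ATP, pH 7.5, pre-dosed with compound.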
# % is set by controls: 0 for no effect and ±100 for the full control effect; potency is the fitted concentration of half-maximal effect; tags give direction and shape of the fitted curve.
# UniProt P08659, sequence (P08659 whole entry, looked up): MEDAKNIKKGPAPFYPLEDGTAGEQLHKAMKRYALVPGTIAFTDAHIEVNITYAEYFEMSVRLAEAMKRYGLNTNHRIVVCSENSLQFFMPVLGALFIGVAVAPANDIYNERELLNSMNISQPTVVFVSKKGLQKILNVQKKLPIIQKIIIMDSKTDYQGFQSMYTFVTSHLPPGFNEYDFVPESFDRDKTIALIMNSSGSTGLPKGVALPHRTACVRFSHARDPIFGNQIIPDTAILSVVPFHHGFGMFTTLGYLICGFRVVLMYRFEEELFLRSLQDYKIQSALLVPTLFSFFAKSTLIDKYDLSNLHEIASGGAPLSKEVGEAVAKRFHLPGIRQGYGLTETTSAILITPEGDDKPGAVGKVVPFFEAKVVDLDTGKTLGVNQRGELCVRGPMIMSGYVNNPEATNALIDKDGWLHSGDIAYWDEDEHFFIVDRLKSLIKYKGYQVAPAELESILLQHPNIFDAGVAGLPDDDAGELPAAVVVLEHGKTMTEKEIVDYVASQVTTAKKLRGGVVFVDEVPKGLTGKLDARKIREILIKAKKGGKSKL
Structure (SMILES),Potency,"activity change, negative = inhibition"
Cc1cc(C(=O)N2CC(F)(F)C[C@H]2c2nc(C3CC3)no2)c(C)o1,"inconclusive: 44.7 µM [inhibitor, partial curve]",–
O=C(NCCOc1ccccc1)c1nc2c(o1)CCN(Cc1cccs1)CC2,"inconclusive: 44.7 µM [inhibitor, partial curve]",–
O=C(NC1C=CS(=O)(=O)C1)c1ccc2nc(-c3ccc(F)cc3)cn2c1 (stereo not drawn),active: 39.8 µM,–
Cc1ccc(C2Cn3nnc(C(=O)N4CCC(C(=O)NCC(C)C)CC4)c3CO2)cc1 (stereo not drawn),active: 22.4 µM,–
O=C(Nc1ccc2c(c1)OCO2)N1CCc2onc(-c3ccc(F)c(F)c3)c2C1,"inconclusive: 44.7 µM [inhibitor, partial curve]",–
COc1cccc(-c2cc(C(=O)NCC34CCC=C3N(C)C(=O)CC4)[nH]n2)c1 (stereo not drawn),–,inactive: -9.84%
O=C(NCCn1ccn2nc(-c3ccc(F)cc3)cc2c1=O)c1c(F)cccc1F,"inconclusive: 3.55 µM [inhibitor, full curve]",–
COc1ccccc1C1CNC(=O)c2nc(-c3cc(C(C)(C)C)[nH]n3)[nH]c2C1 (stereo not drawn),"inconclusive: 89.1 µM [inhibitor, partial curve, poor fit]",–
CC(C)CNC(=O)CC1COCCN1C(=O)c1ccc2c(=O)n(C)cnc2c1 (stereo not drawn),–,inactive: 1.68%
CCCNc1cc(N2CCC(CCC(=O)Nc3ccc4c(c3)OCCO4)CC2)ncn1,active: 11.2 µM,–
Cc1ccc(F)cc1-c1ccc(COc2ccc3c(cnn3CCC(=O)O)c2)cc1,active: 22.4 µM,–
COc1ccc(-c2cc(N3CCCC(NC(=O)c4ccc(F)c(F)c4)C3)n[nH]2)cc1 (stereo not drawn),"inconclusive: 7.08 µM [inhibitor, full curve]",–
O=C(NCC1CCN(c2cc(-c3ccc(Cl)cc3)[nH]n2)CC1)c1ccc(=O)[nH]c1,"inconclusive: 50.1 µM [inhibitor, partial curve]",–
Cn1cccc1C(=O)N1CCCCCCNC(=O)[C@@H]2CCC[C@@H]21,–,inactive: 4.82%
CCn1ncc(NC(=O)Cn2ncc3cc(-c4ccc(C(=O)N(C)C)cc4)ccc32)n1,active: 6.31 µM,–
COC1CCCOC12CCN(C(=O)CCCn1cncn1)CC2 (stereo not drawn),–,inactive: 13%
Cc1ccc(-c2nc(C(=O)N3CCN(Cc4ccc5c(c4)OCO5)CC3)no2)cc1,"inconclusive: 44.7 µM [inhibitor, partial curve]",–
Cc1oc2c(c1C(=O)N(C)CC(=O)N1CCOCC1)CN(Cc1ccc(F)cc1)CC2,"inconclusive: 56.2 µM [inhibitor, partial curve, poor fit]",–
Cc1ccc(N2CC(c3noc(-c4cc(F)ccc4Cl)n3)CC2=O)cc1 (stereo not drawn),–,inactive: -4.65%
Cc1cccc(NC(=O)c2ccc3c(c2)N(C)C2CCCCN2C3=O)c1 (stereo not drawn),active: 28.2 µM,–
CSc1ccc(NC(=O)c2cc3c(s2)CN(C2CC2)C3)cc1,"inconclusive: 12.6 µM [inhibitor, full curve]",–
COc1ccc(-c2cc(N3CCCC(NC(=O)Cc4cccs4)C3)n[nH]2)cc1 (stereo not drawn),"inconclusive: 44.7 µM [inhibitor, partial curve]",–

Structure (SMILES),Potency,"activity change, negative = inhibition"
COc1cc2cc(CN3CCC(N(C)C)C3)c(-c3cccc(Cl)c3)nc2cc1OC (stereo not drawn),"inconclusive: 50.1 µM [inhibitor, partial curve, poor fit]",–
COc1cccc(-c2noc(-c3ccc(-c4ccc(O)cc4)nc3)n2)c1OC,"inconclusive: 31.6 µM [inhibitor, partial curve]",–
Cc1ccc(C2Cn3cnc(C(=O)N4CCC(C(=O)NCc5cccs5)CC4)c3CO2)cc1 (stereo not drawn),"inconclusive: 44.7 µM [inhibitor, partial curve]",–
O=C(c1ccc(F)cc1Cl)N1CCC(n2cc(-c3nc(-c4ccccc4)no3)nn2)CC1,"inconclusive: 44.7 µM [inhibitor, full curve, poor fit]",–
CN(c1ccccc1)c1ccc2nnc(-c3ccccn3)n2n1,"inconclusive: 126 µM [inhibitor, single point]",–
COCCN1CCCCCC(O)c2cc(C(=O)NC3CCC3)ccc21 (stereo not drawn),"inconclusive: 50.1 µM [inhibitor, partial curve]",–
Cc1[nH]ncc1CNC(=O)C1CCN(C(=O)c2ncn3c2COC(c2ccc(F)cc2)C3)CC1 (stereo not drawn),"inconclusive: 39.8 µM [inhibitor, partial curve]",–
COc1ccc(C2Cn3nnc(-c4nc(-c5ccccc5)no4)c3CO2)cc1 (stereo not drawn),"inconclusive: 35.5 µM [inhibitor, partial curve]",–
CN(Cc1cnn(C)c1)C(=O)c1csc2nc(-c3ccc(C(F)(F)F)cc3)cn12,active: 4.47 µM,–
Cc1ccc(N2CCN(C(=O)c3noc(-c4ccc(F)cc4)n3)CC2)cc1,"inconclusive: 50.1 µM [inhibitor, partial curve]",–
Cc1ccc(C)c(NC(=O)N2CCCC(c3noc(COc4ccccc4)n3)C2)c1 (stereo not drawn),"inconclusive: 35.5 µM [inhibitor, partial curve]",–
Cc1csc(NC(=O)c2nc3c(o2)CCN(Cc2c(C)noc2C)CC3)n1,active: 63.1 µM,–
OC(c1nc(Nc2ccc(Oc3ccccc3)cc2)n[nH]1)C1CC1 (stereo not drawn),active: 14.1 µM,–
COc1cc(OC)cc(C(=O)NCCn2ccn3nc(-c4cccc(OC)c4)cc3c2=O)c1,active: 17.8 µM,–
COc1ccc(CN2C(=O)COC[C@H]2C(=O)Nc2ccc3c(c2)OCCO3)c(OC)c1,"inconclusive: 39.8 µM [inhibitor, partial curve]",–
COCCC1(CO)CCCN(c2ncc(F)c(N3CCCC3)n2)C1 (stereo not drawn),"inconclusive: 50.1 µM [inhibitor, partial curve]",–
O=C(NCc1ccc(F)cc1)c1nc(-c2ccc(F)cc2)c2cnccn12,–,inactive: -0.458%
COc1ccc(CCC(=O)N2C[C@@H](C(N)=O)[C@H](c3nc(C)no3)C2)cc1OC,–,inactive: -2.68%
COc1ccc(-c2cc(C[C@@H]3CC[C@@H]4OC(=O)NC[C@H]4O3)no2)cc1,"inconclusive: 56.2 µM [inhibitor, full curve]",–
O=C1c2cnc(-c3cccc(CO)c3)nc2OCCN1Cc1ccccc1,active: 17.8 µM,–
Cc1cn2nnc(C(=O)N3CCC(C(=O)Nc4ccc(C(C)C)cc4)CC3)c2c(=O)[nH]1,"inconclusive: 39.8 µM [inhibitor, partial curve]",–
